Activity calls are given as the source filed them. The calls are words filed in the database; no cut-off is given here.
Experiments:
[1] = biological target: Soluble guanylate cyclase (Homo sapiens, UniProt O75343+P33402+Q02108+Q02153); assay: Inhibition of soluble guanylate cyclase (unknown origin); type: protein-complex assay
[2] = tested on: Human immunodeficiency virus 1; assay: Antiviral activity against HIV1 infected in HEK293T cells at 1 mM after 1 hr by luciferase reporter gene assay relative to control; type: functional
Method in brief: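 Infected 200,000 HEK293T cells with 8 µg/ml polybrene for 48 h alongside a no-virus mock. Lysates assayed for luciferase with ATP and D-luciferin. Two separate experiments, mean ± SD.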

[3] = tested on: Human immunodeficiency virus 1; assay: Antiviral activity against GFP-transducing HIV1 infected in HEK293T cells at 1 mM after 1 hr by GFP fluorescence assay; type: functional, organism-based
Method in brief: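 GFP-reporter HIV-1 (psPAX2 + VSV-G + GFP lentivector, made by HEK293T co-transfection) pelleted and resuspended in PBS. Used to infect 200,000 HEK293T cells in DMEM with 8 µg/ml polybrene, 48 h at 37°C. Cells fixed in 4% paraformaldehyde; GFP-positive cells imaged by fluorescence microscopy.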

IC50 [1] [nM] | SMILES | fold change (FC) [2] | Activity [3]
1000 to 2000 | O=C1C(Nc2ccccc2)=CC(=O)c2ncccc21 | – | –
– | c1ccc(SSc2ccccn2)nc1 | >4 | Active

From ChEMBL document CHEMBL4428129, “Analysis of quinolinequinone reactivity, cytotoxicity, and anti-HIV-1 properties” (Bioorg Med Chem, 2016)
